The results in this text go back to PubChem BioAssay AID463173 (ICCB-Longwood Screening Facility, Harvard Medical School, 2010).

The structures appear in SMILES notation. Out of some 52,000 compounds screened, about 1,700 (3.3%) were called active. No stated cut-off is given here; in the data, active means survival mostly below about 52% (no sharp cut-off); inactive means mostly above about 56%. The list shows a part of the results.

In this assay the test system is Wild type. The assay can be described thus: S. aureus survival, RN4220 and DeltatarO strains – OD600, teichoic acid synthesis inhibitors, primary screen (AID 463173). As to conditions: S. aureus RN4220 wild type/DeltatarO growth, OD600, 18 h, active compounds read low, screened at 18.75 µg/mL (by protocol).
As to `Cc1ccc(OCCn2nnc3sc4c(c3c2=O)CCC(C)C4)cc1` (configuration not stated), the survival was inactive: 82%.
Turning to `Cn1cnc(S(=O)(=O)N2CCC(C(=O)N3CCN(c4ccccc4F)CC3)CC2)c1`, the survival was inactive: 59%.
Then `CCOc1ccc(NC(=O)c2cc(=O)c3ccc(C)c(C)c3o2)cc1`, with inactive: 84%; and `CSc1cccc(NS(=O)(=O)c2cn(C)c(C)n2)c1`, with inactive: 59%; and `CCOc1ccc2c(c1)NC(c1cccs1)=NC(c1ccc(F)cc1)=N2`, with inactive: 74%.
Then `COc1ccc(C2C(C(=O)Nc3ccc(C)cc3C)=C(C)Nc3nc4ccccc4n32)c(OC)c1` (configuration not stated), with inactive: 65%; and `COc1ccc2occ(CC(=O)Nc3ccc(S(=O)(=O)Nc4nc(C)cc(C)n4)cc3)c2c1`, with inactive: 115%.
For the compound `CCN(c1ccccc1)c1nnc(NC(=O)Nc2ccc(Br)cc2F)s1`, the survival was inactive: 98%.
Then `COc1ccc(N2CCN(c3nc4ccc(C)cc4n4nnnc34)CC2)cc1`, with active: -6%; and `O=C(Nc1ccc(Br)cc1F)N1CCC2(CC1)Oc1ccccc1C(=O)N2Cc1ccccc1F`, with inactive: 95%.
Then `CC(C)(C)c1ccc(C(=O)N2CCCCC2CCN2CCCCC2)cc1` (configuration not stated), with inactive: 88%.
For the compound `CCC(C)NC(=O)C1=CC(c2ccc3c(c2)OCO3)=NS(=O)(=O)N1C` (configuration not stated), the survival is inactive: 85%.
Then `COC(=O)c1cc(NC(=O)Cn2nc(-c3ccc(C)c(C)c3)ccc2=O)cc(C(=O)OC)c1`, with inactive: 94%; and `COC(=O)c1ccc(Cn2nnc3c(=O)[nH]c(C4CCCN(S(=O)(=O)c5cccc(Cl)c5)C4)nc32)cc1` (configuration not stated), with inactive: 98%; and `COc1ccc2c(c1)cc1c(=O)n(CC(=O)NCCCc3ccccc3)nc(C)n12`, with inactive: 79%.
Then `O=C(CN1C(=O)COc2ccc(S(=O)(=O)Nc3ccccc3)cc21)Nc1cccc(Cl)c1`, with inactive: 80%; and `COc1cccc2c1Oc1ncccc1N(C(=O)CCC(=O)NCc1ccccc1Cl)C2`, with inactive: 49%; and `CCOc1ccc(-c2cc(-c3nc(-c4ccc(OC)c(OC)c4)no3)[nH]n2)cc1`, with inactive: 64%.
Then `Cc1ccccc1CSc1ncc(CO)n1Cc1ccc(F)cc1`, with inactive: 136%.
Consider `Cc1cc(C)nc(SCC(=O)Oc2ccc3oc(=O)cc(C)c3c2)n1`, for which the survival is inactive: 102%.
In the case of `CCN(C(=O)Cn1cnc2sc(C)c(S(=O)(=O)N3CCN(c4ncccn4)CC3)c2c1=O)c1ccccc1F`, the survival was inactive: 84%.
Then `COc1ccc(Cc2nc3ccccc3n2Cc2ccccc2F)cc1`, with active: 23%.
Then `CC(=O)c1ccc(NC(=O)CC(c2cccs2)N2Cc3ccccc3C2=O)cc1` (configuration not stated), with inactive: 49%; and `O=C(c1ccccc1)n1nnc2ccccc21`, with inactive: 103%.
Turning to `COc1ccc(-c2cn3cccnc3n2)cc1NC(=O)c1cc(C)cc(C)c1`, the survival was inactive: 55%.
Then `Cc1cc(Cl)ccc1OCC(=O)N(Cc1ccco1)Cc1ccco1`, with inactive: 76%; and `COc1ccc(CCNC(=O)CCc2c(C)c3cc4c(C)coc4c(C)c3oc2=O)cc1OC`, with inactive: 105%; and `CCOC(=O)c1ccc(NC(=O)c2ccc(=O)n(Cc3cccc(C)c3)c2)cc1`, with inactive: 60%.
For the compound `CC(O)CNc1nc2c(c(=O)n(Cc3ccc(Cl)cc3)c(=O)n2C)n1C` (configuration not stated), the survival is inactive: 128%.
As to `COc1ccc(-c2nnc(C3CCN(S(=O)(=O)c4ccc(C)c(C)c4)CC3)o2)cc1`, the survival is inactive: 67%.
In the case of `Cc1ccc(-n2ncc(C(=O)N3CCN(c4ccc(Cl)cc4)CC3)c2C2CCN(C(=O)OC(C)(C)C)CC2)c(C)c1`, the survival is inactive: 90%.
`Cc1cc2c(cc1S(=O)(=O)CCC(=O)NCCc1ccccc1)OCC(=O)N2`: the survival was inactive: 83%.
Then `CCC1CN(C(=O)Nc2ccc(C)c(F)c2)c2ccccc2S1` (configuration not stated), with inactive: 140%.
Then `Cc1ccc(NC(=O)CN2CCSc3ccc(S(=O)(=O)N4CCCC4)cc32)cc1C`, with inactive: 53%; and `O=C1CN(C(=O)c2ccc(S(=O)(=O)N3CCCC3)cc2)C(c2ccccc2)c2cc(Br)ccc2N1` (configuration not stated), with inactive: 90%.
As for `CCOc1ccc(-c2nnc(SCC(=O)NCc3ccccc3)o2)cc1`, the survival is inactive: 112%.
Then `COc1cc(OC)c(NS(=O)(=O)c2cc(-c3cnc(C4CC4)o3)ccc2C)cc1Cl`, with inactive: 66%.
Then `Cc1nnc(N2CCC(C(=O)NCCc3ccccc3)CC2)c2nn(-c3ccc(Cl)cc3)c(C)c12`, with inactive: 102%; and `CCOc1ccc(-n2nc3cc(C)c(NC(=O)c4cc(OCC)c(OCC)c(OCC)c4)cc3n2)cc1`, with inactive: 134%.
As for `CC(C)(C)C(=O)NC1(C(F)(F)F)C(=O)Nc2c1c(=O)[nH]c(=O)n2-c1ccccc1` (configuration not stated), the survival was inactive: 70%.
For `CCn1c(C(=O)N2CCCC(C(=O)N3CCN(c4cc(C)ccc4C)CC3)C2)cc2sccc21` (configuration not stated), the survival is inactive: 32%.
Then `CC(C)(C)C(=O)C1=C(O)C(=O)N(c2ccccc2)C1c1ccccc1` (configuration not stated), with inactive: 102%; and `CCN(CC)c1ccc(NC(=O)c2sc3nc4c(cc3c2N)CN(C)CC4)cc1`, with inactive: 167%.
Regarding `Cc1nncn1-c1ccc(C(=O)Nc2cc(F)ccc2F)cc1`, the survival was inactive: 71%.
With `Cc1ccc(CCNC(=O)CCS(=O)(=O)c2cc3c(cc2C)NC(=O)CO3)cc1`, the survival is inactive: 88%.
Then `COc1cc(OC)c(OC)cc1CNc1sc2c(c1C(=O)Nc1ccccc1OC)CCC2`, with inactive: 132%.
Then `O=C(Nc1ccc2nc(SCC(=O)N3CCc4ccccc43)sc2c1)c1cccc(Cl)c1`, with inactive: 112%; and `CN(C(=O)CCS(=O)(=O)c1cc2c(cc1Cl)NC(=O)CO2)C1CCCCC1`, with inactive: 83%.
Regarding `CCOc1cc(NC(=O)C2CC2)c(OCC)cc1NC(=O)CCn1nnc2ccccc21`, the survival is inactive: 112%.
Then `CCn1c(=N)c(C(=O)NC2CCCCC2)cc2c(=O)n3cc(C)ccc3nc21`, with inactive: 70%.
Then `COc1ccc(C)cc1NS(=O)(=O)c1cc2c3c(c1)CC(=O)N3CCC2`, with inactive: 79%.
Then `COc1ccc(NC(=O)CSc2nc3nc(C)c(Cc4ccccc4Cl)c(C)n3n2)cc1OC`, with inactive: 66%.
`COc1ccc(Cl)cc1NC(=O)CCCN1C(=O)C(c2ccccc2)Oc2cccnc21` (configuration not stated): the survival is inactive: 104%.
Turning to `COc1cc2c(cc1OC)C(COc1cc(C)cc(C)c1)N(C(=O)COc1ccccc1)CC2` (configuration not stated), the survival was inactive: 81%.
Then `COc1ccc(-n2c(=O)c3ccccc3n(CC(=O)NCCc3ccc(OC)c(OC)c3)c2=O)cc1`, with inactive: 104%; and `CC(C)NC(=O)CSc1nc(-c2ccco2)cc(C(F)(F)F)n1`, with inactive: 100%; and `Cc1ccccc1CCNC(=O)c1cc2cc(S(=O)(=O)N3CCCCC3)ccc2n1C`, with active: -3%.
On to `COc1ccc(-n2ncc(C(=O)Nc3cccc(C(F)(F)F)c3)c2C2CCN(C(=O)OC(C)(C)C)CC2)cc1`, for which the survival was inactive: 55%.
Then `CCOCCCN(Cc1ccco1)S(=O)(=O)c1cc2c(cc1C)NC(=O)CO2`, with inactive: 75%; and `COc1ccc(N2Cc3cccc(C(=O)Nc4ccc(F)cc4)c3C2=O)cc1`, with inactive: 128%; and `Cc1ccc(C2=Nc3ccccc3N(CC(=O)NCc3ccccc3Cl)C(=O)C2)cc1C`, with inactive: 84%.
As for `O=C(Nc1c(C(=O)N2CCN(c3ccccc3)CC2)oc2ccccc12)c1ccco1`, the survival is active: 10%.
As to `Cc1ccccc1CN1c2ccccc2-c2nc(SCC(=O)NCc3ccccc3)ncc2S1(=O)=O`, the survival was active: -3%.
As for `Cc1c(C(=O)NCCc2ccc(Cl)cc2)sc2nc3n(c(=O)c12)CCCC3`, the survival is inactive: 78%.
Then `CC(C)C(=O)NCC(c1ccc2c(c1)OCO2)N1CCN(c2ccccc2)CC1` (configuration not stated), with inactive: 95%.
Turning to `Cc1ccc2nc(CNC(=O)c3ccccc3)[nH]c2c1`, the survival was inactive: 99%.
For `CNc1nc2ccccc2o1`, the survival is inactive: 102%.
Turning to `Cc1cccn2c(=O)c(C(=O)NCCc3ccccc3)c(O)nc12`, the survival was inactive: 70%.
Then `CCOc1ccc(N2C(=O)CC(NCCNC(=O)c3ccc(Cl)cc3)C2=O)cc1` (configuration not stated), with inactive: 109%.
Regarding `COc1ccc(CCNC(=O)C(=O)NCC(c2ccc3c(c2)OCO3)N2CCOCC2)cc1OC` (configuration not stated), the survival is inactive: 73%.
`Cc1cccc(-c2noc(CSc3nc(-c4ccc(F)cc4)cc(=O)[nH]3)n2)c1`: the survival was inactive: 82%.
Then `C=CCNC(=O)c1ccc(CN2CCOCC2)cc1`, with inactive: 105%.
Then `CCOc1ccc(NC(=O)c2oc3ccccc3c2NC(=O)c2c(F)cccc2F)cc1`, with inactive: 110%; and `COc1cccc(-n2ccn(CC(=O)c3ccc(F)cc3)c(=O)c2=O)c1`, with inactive: 86%.
Then `COc1ccccc1N1CCN(C(=O)CSc2nc3ccccc3nc2Cc2ccccc2)CC1`, with inactive: 75%.
As to `CCOc1ccc(NC(=O)C2CCCN(S(=O)(=O)c3ccc4[nH]c(=O)ccc4c3)C2)cc1` (configuration not stated), the survival is inactive: 102%.
Regarding `Cc1ccc(NC(=O)C(=O)c2cc(C)n(-c3ccc(F)cc3)c2C)cc1C`, the survival is inactive: 89%.
Then `COc1ccc(CNC(=O)c2cc(Nc3ccc(C)cc3C)nc3ccccc23)cc1`, with inactive: 91%; and `CCCN(CCC)S(=O)(=O)c1ccc2c(c1)N(CC(=O)NC(C)c1ccccc1)C(=O)CS2` (configuration not stated), with inactive: 93%; and `Cc1ccc(CSC2=Nc3ccccc3C3=NC(CC(=O)NC4CCCCC4)C(=O)N23)cc1` (configuration not stated), with inactive: 83%.
Then `COc1ccccc1N1CCN(C(=O)c2cc(-c3ccc(F)cc3)on2)CC1`, with inactive: 73%.
Turning to `Cc1ccc(S(=O)(=O)Nc2ccc(N=NN3CCCCC3)cc2)cc1`, the survival is inactive: 89%.
Then `Cc1ccc2nc(-c3ccc(NC(=O)COc4ccccc4)cc3)sc2c1`, with inactive: 66%; and `CCN(c1cccc(C)c1)S(=O)(=O)c1nnc(NC(=O)c2ccccc2Cl)s1`, with inactive: 24%; and `CC(=O)c1ccc(N2C(=O)N(CC(=O)c3ccc(C)cc3)c3ccccc3S2(=O)=O)cc1`, with inactive: 89%.
In the case of `COc1cc(NC(=O)Cc2c(C(=O)O)c(C)cn2C)cc(OC)c1`, the survival was inactive: 99%.
Turning to `CCOc1ccc(C2C(=O)N(C3CCCCC3)CC(=O)N2C2CCCC2)cc1OC` (configuration not stated), the survival was inactive: 82%.
